# Laboratory results: PubChem BioAssay AID344 (DTP/NCI, 2004)
# Inconclusive results and toxic doses are left out. Not every entry of the source has a single result; some have several. This list holds those alone. An entry can have further records. Values given together repeat one measurement (runs, samples, wells, individuals or studies). Brackets tell where a record comes from. The letters are not those of the source and start again with each entry.
# Test system: mice, LPC-1 plasma cell tumor ip, median survival T/C
# Test: NCI In Vivo Anticancer Drug Screen. Data for tumor model Lieberman Plasma Cell No. 1 (LPC-1) (intraperitoneal) in unknown mice
# Conditions: endpoint: median survival time, schedule: Q01DX028 (sc), higher = longer survival
# Procedure: The antitumor activity of compounds was measured in mice bearing transplantable tumors. Survival or tumor size were measured and the results are expressed as the measurement made in the treated group (T) divided by the measurement made in the vehicle treated control group (C). The tumor model used in this assay is Lieberman Plasma Cell No. 1 (LPC-1) (intraperitoneal) in unknown mice
compound,measurement,setting,value
O=P1(N(CCCl)CCCl)NCCCO1 (stereo not given),T/C,"dose: 5.0 mg/kg/injection, vehicle: saline",120 % of control and 165 % of control
N[C@@H](Cc1ccc(N(CCCl)CCCl)cc1)C(=O)O,T/C,"dose: 0.65 mg/kg/injection, vehicle: saline","118 % of control, 165 % of control, 175 % of control"
O=NN(CCCl)C(=O)NC1CCCCC1,T/C,"dose: 22.0 mg/kg/injection, vehicle: carboxymethylcellulose (CMC)",102 % of control and 162 % of control
OC(CBr)C(O)C(O)C(O)CBr (stereo not given),T/C,"dose: 62.5 mg/kg/injection, vehicle: carboxymethylcellulose (CMC)","89 % of control, 151 % of control [sample A] and 94 % of control [sample B]"
same,T/C,"dose: 250.0 mg/kg/injection, vehicle: carboxymethylcellulose (CMC)",161 % of control [sample A] and 94 % of control [sample B]
